Results on 85 compounds are retold here after PMC4336329 (PLoS ONE, 2015).

Screen size: about 310,000 compounds; about 2,200 (0.71%) showed an effect of 50% or more. Effects have a minus sign here. Some of the results follow.

human ether-à-go-go-related gene (hERG) potassium channel, sequence (Q12809 whole entry, looked up): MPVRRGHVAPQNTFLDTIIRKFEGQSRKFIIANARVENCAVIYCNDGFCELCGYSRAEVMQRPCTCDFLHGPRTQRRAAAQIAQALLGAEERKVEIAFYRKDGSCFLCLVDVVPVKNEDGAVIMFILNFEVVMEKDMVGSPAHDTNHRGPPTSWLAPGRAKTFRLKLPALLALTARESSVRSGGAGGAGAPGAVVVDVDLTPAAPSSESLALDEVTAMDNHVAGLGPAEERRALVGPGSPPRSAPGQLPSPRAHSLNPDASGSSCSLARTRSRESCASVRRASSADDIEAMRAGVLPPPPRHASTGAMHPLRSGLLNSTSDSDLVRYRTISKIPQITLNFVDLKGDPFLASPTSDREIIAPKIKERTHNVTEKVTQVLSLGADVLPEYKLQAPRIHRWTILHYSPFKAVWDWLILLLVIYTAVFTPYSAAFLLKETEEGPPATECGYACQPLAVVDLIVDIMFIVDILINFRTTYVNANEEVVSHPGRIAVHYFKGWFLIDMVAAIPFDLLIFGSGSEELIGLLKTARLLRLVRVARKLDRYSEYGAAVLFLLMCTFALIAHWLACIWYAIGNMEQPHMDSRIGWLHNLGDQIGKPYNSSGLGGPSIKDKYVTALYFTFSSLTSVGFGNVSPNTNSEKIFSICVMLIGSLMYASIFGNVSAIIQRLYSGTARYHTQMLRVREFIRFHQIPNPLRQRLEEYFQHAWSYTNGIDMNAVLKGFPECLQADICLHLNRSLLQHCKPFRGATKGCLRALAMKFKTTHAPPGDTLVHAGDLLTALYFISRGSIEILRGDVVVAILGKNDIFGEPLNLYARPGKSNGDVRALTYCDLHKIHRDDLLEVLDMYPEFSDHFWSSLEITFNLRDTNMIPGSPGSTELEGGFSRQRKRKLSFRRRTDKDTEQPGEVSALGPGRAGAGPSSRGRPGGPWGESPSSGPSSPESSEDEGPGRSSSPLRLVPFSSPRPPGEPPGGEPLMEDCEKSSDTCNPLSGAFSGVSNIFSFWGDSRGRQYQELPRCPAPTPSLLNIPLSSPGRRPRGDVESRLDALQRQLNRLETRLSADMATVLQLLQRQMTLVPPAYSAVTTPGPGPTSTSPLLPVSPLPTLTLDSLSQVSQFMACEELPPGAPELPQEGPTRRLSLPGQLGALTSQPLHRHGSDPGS

The assay has as its target human ether-à-go-go-related gene (hERG) potassium channel (human, UniProt Q12809). Put plainly: primary screen, population patch clamp on CHO cells stably expressing hERG.
As for `Cc1sc2ncnc(N3CCC(C(=O)Nc4ccc(C#N)cc4)CC3)c2c1C`, the “hERG current change (%, negative = inhibition) at 1uM” value is recorded as 16.5%.
With `CC1=NN(c2ccc(Br)cc2)C(=O)/C1=C/c1cccs1` the figure was 16.8%.
For the compound `O=C(NCc1ccccn1)c1nc(Cn2cc([N+](=O)[O-])cn2)no1`, the “hERG current change (%, negative = inhibition) at 1uM” value turned out to be 9.44%.
With `CCOC(=O)C1=C(C)N(C)C(C)=C(C(=O)OCC)C1c1ccsc1` the figure was 20.9%.
With `CC(C)c1ccc(CCNC(=O)CCNC(=O)c2ccc(Br)cc2)cc1`, the “hERG current change (%, negative = inhibition) at 1uM” value came to 8.08%.
The result for `CC(C)(C)c1ccc(OCC(O)CN2CCN(C(=O)c3ccccc3)CC2)cc1.O=C(O)C(=O)O` (stereo not shown) reads -9.74%; that for `CC(C)Nc1ccc(C(CC(N)=O)NC(=O)c2ccc(Br)cc2)cc1[N+](=O)[O-]` (stereo not shown), 9.08%; that for `O=C(COc1ccc2ccccc2c1)NNC(=O)Cc1ccccc1`, 15%.
With `CCc1cc(=O)oc2cc(OCC(=O)NCc3ccccn3)ccc12` the figure was 7.89%; with `Cc1ccc(OCCCN2C(=O)C(=O)c3cc(C)ccc32)cc1`, 6.9%.
With `Cc1sc(NC(=O)CN(Cc2ccccc2)C(=O)C(C)C)c(C(N)=O)c1C` the figure was 2.32%; with `COc1ccc2[nH]c3c(c2c1)CC(C)NC3=O` (stereo not shown), 14.9%; with `CCOc1ccc(C(=O)N(CC)CC(=O)Nc2ccc3c(c2)OCCO3)cc1OCC`, 4.59%.
Regarding `Cc1ccc(CNC(=O)c2ccc3c(=O)n4c(-c5ccc(C)cc5)csc4nc3c2)cc1`, the “hERG current change (%, negative = inhibition) at 1uM” value is reported as 10.4%.
With `COc1cccc(/C=N/NC(=O)c2cc(-c3cccn3C)n[nH]2)c1` the figure was 4.76%.
With `CC(=O)COc1nc2c(c(-c3ccco3)c1C#N)CCc1ccccc1-2` the figure was 11.6%; with `CSCc1ccc(C(=O)N2CCCC(Nc3ccc(F)cc3)C2)o1` (stereo not shown), 3.79%; with `COc1ccccc1C(=O)N1C(CC(=O)Nc2ccc(C)c(C)c2)C(=O)NC2CCCCC21` (stereo not shown), 10.1%.
With `O=C(CSc1ncn[nH]1)N1c2ccccc2Sc2ccccc21` the figure was 9.21%; with `CCOc1cc(C(C(=O)NCC2CCCO2)N(C(=O)Cn2nnc3ccccc32)c2cccc(OC)c2)ccc1O` (stereo not shown), 9.93%.
As for `COC(=O)C1=C(C(=O)OC)[C@@H]2N(Cc3ccccc3)c3ccccc3[C@@]23C[C@@H](C(=O)OC)N(C(=O)c2cccs2)C3=N1`, the “hERG current change (%, negative = inhibition) at 1uM” value was 9.3%.
The result for `CN(CCC(=O)Nc1cc(S(=O)(=O)N(C)C)ccc1Cl)CC(=O)Nc1ccc(F)cc1` reads -18.6%; that for `Cc1cc(C(=O)N/N=C/c2cc(N=Nc3ccccc3)ccc2O)n[nH]1`, 16.9%.
The result for `Cc1ccc(C(=O)NC2CCN(CC(=O)Nc3c(C)cc(C)cc3C)CC2)cc1` reads 10.4%; that for `C[C@@H](C(=O)NCC1CC1)[C@@H]1C[C@@]1(C)[C@@H](NC(=O)OCc1ccccc1)c1ccccc1`, 13%; that for `Cc1cc(C)c(S(=O)(=O)c2ccccc2)c(OC(=O)c2c(Cl)cc(Cl)cc2Cl)n1`, 4.44%.
The result for `O=Cc1cccc(Oc2ccc([N+](=O)[O-])cc2[N+](=O)[O-])c1` reads 5.01%.
Turning to `O=S(=O)(Nc1ccc(O)c(NS(=O)(=O)c2ccccc2)c1)c1ccccc1`, the “hERG current change (%, negative = inhibition) at 1uM” value is listed as 12.6%.
The result for `COCC(C)NC(=O)CSc1nc2ccccc2c(=O)n1CCc1ccc(S(N)(=O)=O)cc1` (stereo not shown) reads 9.59%.
Take `C=CCNc1nc(-c2sc(NC(C)=O)nc2C)cs1`: the “hERG current change (%, negative = inhibition) at 1uM” value is 10.7%.
The result for `Cc1cc(C)c(S(=O)(=O)N(CC(=O)O)CC(=O)O)c(C)c1` reads 6.69%.
With `Cc1c(C(=O)N/N=C/C(C)C)[nH]c2c([N+](=O)[O-])cccc12` the figure was 7.17%; with `Cc1c(Cl)cccc1NC(=S)N1CC2CC(C1)c1cccc(=O)n1C2` (stereo not shown), 2.25%.
In the case of `O=C(NCc1ccc(F)cc1)Nc1cccc(Cl)c1`, the “hERG current change (%, negative = inhibition) at 1uM” value is 9.25%.
The result for `O=C(CN1CCc2ccccc2C1)NC1CCCC1` reads 10.8%; that for `Cc1cc(NC(=O)CSc2nc3ccsc3c(=O)n2Cc2ccccn2)n[nH]1`, -0.106%; that for `CCOC(=O)c1c(C)c(-c2ccccc2)n(CC(=O)NCCCN(CC)CC)c1C`, 7.29%.
As for `COC(C(=O)Nc1ccc(S(=O)(=O)Nc2cccc3ccccc23)cc1)c1ccccc1` (stereo not shown), the “hERG current change (%, negative = inhibition) at 1uM” value was found to be 5.54%.
The result for `CCC(C)Sc1ccc([C@H]2N[C@@](CC(C)C)(C(=O)OC)[C@H]3C(=O)N(C)C(=O)[C@@H]23)cc1.O=C(O)C(F)(F)F` (stereo partly shown) reads 7.91%; that for `CCCC(C)n1[nH]c(=O)cc1N` (stereo not shown), 5.09%; that for `O=C(c1ccc(N2CCCCC2)c([N+](=O)[O-])c1)N(c1ccccn1)c1ccccn1`, 4.89%.
With `CCOC(=O)C1CCCN(CC(=O)Nc2c(C(=O)OC)[nH]c3ccccc23)C1` (stereo not shown), the “hERG current change (%, negative = inhibition) at 1uM” value was determined as 14.5%.
With `Clc1ccccc1N1CCN(Cc2ccc3c(c2)OCO3)CC1.O=C(O)C(=O)O` the figure was 13.2%; with `COc1cccc(NC(=S)N2CCN(S(C)(=O)=O)CC2)c1`, 13%; with `CC(C)(C)C1=C[C@@H](CO)C[C@@H](CO)C1`, 9.08%.
As to `CCc1c(C)nc2ncnn2c1Nc1ccc(C#N)c(Cl)c1`, the “hERG current change (%, negative = inhibition) at 1uM” value is recorded as -22.7%.
With `COc1ccc(CC(=O)OCN2C(=O)c3ccccc3C2=O)cc1` the figure was 4.3%.
Turning to `NC(=O)C1(N2CCCCC2)CCN(C(=O)CSc2nc3ccccc3[nH]2)CC1`, the “hERG current change (%, negative = inhibition) at 1uM” value is on record as 11.3%.
With `CCOC(=O)c1oc2nc(CC(C)C)c3c(c2c1N)CCC3` the figure was 9.98%.
With `Cc1noc(C)c1COc1ccc(C(=O)N2CCCC(C(F)(F)F)C2)cc1` (stereo not shown) the figure was -8.81%; with `CC(Oc1ccc(Cl)cc1)C(=O)Nc1ccc(S(=O)(=O)N2CCOCC2)cc1` (stereo not shown), 5.73%.
The result for `CC(=O)/C(C#N)=C1\NC(=O)C(Cc2cc(Cl)ccc2Cl)S1` (stereo not shown) reads 11.4%; that for `COc1ccc(Nc2nc(-c3cccc(OC)c3O)nc3ccccc23)cc1`, 17.2%.
Take `O=C(c1cc(=O)[nH]c2ccccc12)N1CCN(c2cccc(C(F)(F)F)c2)CC1`: the “hERG current change (%, negative = inhibition) at 1uM” value is -2.59%.
As to `CCOc1ccc(C(=O)n2cc(C(=O)OC)c3ccccc32)cc1`, the “hERG current change (%, negative = inhibition) at 1uM” value was 10.8%.
With `CC1CCCN(c2ccc(C(=O)NCc3ccc4c(c3)OCO4)cc2[N+](=O)[O-])C1` (stereo not shown) the figure was 12.8%; with `CN(C)c1ccc(/C=N/NC(=O)CN2CCN(c3ccc(F)cc3)CC2)cc1`, 11.1%.
The result for `COc1ccc(-n2nc(C(=O)NCC(=O)NCCCN3CCCCCC3)c3ccccc3c2=O)cc1Cl` reads 0.584%; that for `Cc1cccc(/C=N/n2c(-c3ccco3)n[nH]c2=S)c1`, 0.426%.
The result for `O=C(Nc1sc2c(c1C(=O)O)CCCC2)C(=O)N1CCOCC1` reads 27.9%; that for `O=S(=O)(c1ccc2ccccc2c1)N1CCN(C(=S)Nc2ccc(F)cc2)CC1`, 1.98%.
For `COc1ccc(C)c(Cn2c(-c3nonc3N)nc3ccccc32)c1`, the “hERG current change (%, negative = inhibition) at 1uM” value is 3.31%.
The result for `Cc1c(NC(=O)C(C)OC(=O)c2ccc(Cl)nc2)c(=O)n(-c2ccccc2)n1C` (stereo not shown) reads -2.42%; that for `O=C(NC(=S)Nc1ccc(N2CCCCC2)cc1)c1cccs1`, -0.035%.
With `Cc1cc(C(=O)OCC(=O)Nc2cc(C)on2)c2ccccc2n1` the figure was 0.152%; with `Cc1ccc(NC(=O)c2cccc(N3C(=O)CCC3=O)c2)nc1`, 9.48%; with `O=C(C[n+]1ccc(C(=O)NCCCO)cc1)c1cccc(Br)c1.[Br-]`, 13.1%.
The result for `O=C(NCCCN1CCOCC1)C(=O)N/N=C/c1ccccc1` reads -1.86%.
Take `CCN(CC)C(=O)Oc1ccc(Br)c2ccccc12`: the “hERG current change (%, negative = inhibition) at 1uM” value was found to be 4.72%.
Regarding `O=C1CCCC2=C1C(c1cccs1)Nc1ccc3ncccc3c12` (stereo not shown), the “hERG current change (%, negative = inhibition) at 1uM” value is reported as -8.63%.
With `Cc1ccc(C(=O)N/N=C\c2ccc(Br)o2)o1` the figure was 11.6%.
With `O=C(CSc1nc2ncccc2[nH]1)NCc1ccco1` the figure was 9.04%; with `Cc1cc(S(=O)(=O)NCCCN2CCOCC2)ccc1F`, 5.62%.
The result for `CCC/C=N/NC(=O)C1COc2ccccc2O1` (stereo not shown) reads 11.5%; that for `Cc1noc(NS(=O)(=O)c2ccc(NC(=O)c3ccc(N4C(=O)c5ccccc5C4=O)cc3)cc2)c1C`, 14.6%.
For the compound `COc1ccc(OC)c(NC(=O)CSc2nnc(CNC(=O)COc3ccc(Cl)cc3)o2)c1`, the “hERG current change (%, negative = inhibition) at 1uM” value was 2.4%.
Turning to `CSc1ccccc1C(=O)NCCCOC(C)C`, the “hERG current change (%, negative = inhibition) at 1uM” value is -1.34%.
With `O=C(O)CSc1nc2c(cnn2-c2ccccc2)c(=O)n1-c1ccc(Br)cc1` the figure was 6.81%; with `Cc1cc(NC(=O)Cn2nc(C(F)(F)F)c3c2CCC3)no1`, 17.1%; with `Cc1c(C(=O)Nc2ccc(F)cc2)oc2ccc(S(=O)(=O)N3CCC4(CC3)OCCO4)cc12`, 2.31%.
As to `COc1cccc2cc(C(=O)NCCN3CCOCC3)c(=O)oc12`, the “hERG current change (%, negative = inhibition) at 1uM” value is reported as 5.56%.
With `COc1cccc(N2CCN(S(=O)(=O)c3ccc(-c4coc(C)n4)cc3)CC2)c1` the figure was 11.7%.
With `COC(=O)c1ccc(-c2n[nH]c(=O)c3ccccc23)cc1` the figure was -4.95%; with `C=CCNC(=O)c1ccc(C(=O)c2ccccc2)cc1`, -6.75%.
With `Cc1ccccc1OCc1n[nH]c(=S)n1-c1cccc(Cl)c1` the figure was 14.7%.
